Measured values: US12535491B2, “Vaccine comprising protein-targeted (PT) extracellular DNA isolated from bacterial matrix” (priority 2018, dated 2026)

Experiments:
[1] = test system: SU-DHL4 target cell lines; assay: Antibody-dependent cell-mediated cytotoxicity (ADCC) assay; format: cell-based; conditions: SU-DHL4 target cells
Procedure: (§1) The efficacies of Rituximab and Rituximab-Mod were compared based on Binding to CD20-expressing target cells and antibody-dependent cell-mediated cytotoxicity [ADCC] assays.
(§2) The binding of Rituximab-Mod and rituximab was assessed on SU-DHL4 cell lines with high (1,000,000) CD20 receptor copy numbers. […] The ability of Rituximab-Mod and rituximab to mediate ADCC was assessed using SU-DHL4 target cell lines. The potency of Rituximab-Mod was higher than that of rituximab.

[2] = molecular target: T1, SU-DHL4 cell lines with high CD20 receptor copy numbers (Homo sapiens, UniProt P11836); assay: Binding to CD20-expressing target cells; conditions: SU-DHL4, antibody concentrations up to 10 μg/mL
T1 construct: endogenous in cells; host or cells: SU-DHL4
T1 sequence (P11836 1-297): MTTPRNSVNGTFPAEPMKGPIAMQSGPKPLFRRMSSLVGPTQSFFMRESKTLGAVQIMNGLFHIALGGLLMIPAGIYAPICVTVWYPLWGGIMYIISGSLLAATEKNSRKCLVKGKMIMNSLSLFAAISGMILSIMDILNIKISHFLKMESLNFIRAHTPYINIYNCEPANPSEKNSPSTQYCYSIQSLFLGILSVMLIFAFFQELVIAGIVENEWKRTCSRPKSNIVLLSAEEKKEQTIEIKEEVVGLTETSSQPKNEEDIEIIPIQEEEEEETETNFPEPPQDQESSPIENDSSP
Procedure: as §1, §2

B1: Rituximab-Mod: modified Rituximab antibodies with added PrDs (SEQ ID NO: 5) (protein)
chain: VQLQQPGAELVKPGASVKMSCKASGYTFTSYNMHWVKQTPGRGLEWIGAIYPGNGDTSYNQKFKGKATLTADKSSSTAYMQLSSLTSEDSAVYYCARSTYYGGDWYFNVWGAGTTVTVSAASTKGPSVFPLAPSSKSTSGGTAALGCLVKDYFPEPVTVSWNSGALTSGVHTFPAVLQSSGLYSLSSVVTVPSSSLGTQTYICNVNHKPQNQNQNQNQNQNQNSNTKVDKKA[human IgG1 Fc not written out]QNQNQNQNQNQNQN
modifications: Synthetic peptide (Rituximab-Mod)
EC50 of target cell killing (ADCC) [1]: ~0.1 ng/mL
overall killing efficacy (ADCC) versus rituximab ([1]; particularly at low antibody concentrations): higher overall killing efficacy
maximal binding intensity to tumor cells relative to rituximab at the same concentrations [2]: over 2 times
